In all, about 52,000 compounds went through this assay and about 4,300 (8.3%) were called active. Cut-off read from the data, not from the text of the source: active = survival mostly below about 52% (no sharp cut-off); inactive = mostly above about 56%. The list shows a part of the results.

The test system of this experiment is DeltatarO mutant. In words: growth inhibition of S. aureus wild type versus tarO mutant, primary screen, teichoic acid synthesis inhibitors, RN4220, OD600 (AID 463173). Particulars: OD600, 18 h, hits give low values, screened at 18.75 µg/mL (by protocol).
Regarding `COC(=O)c1cc2oc3ccccc3c2n1Cc1nc(-c2ccccc2C)oc1C`, the survival was inactive: 127%.

As to `O=C(CSCc1cc(=O)c2cc(F)ccc2[nH]1)Nc1ccccc1Cl`, the survival is inactive: 94%. In the case of `Cc1cccc(N2CCN(S(=O)(=O)c3cc(C(=O)Nc4ccccc4Cl)ccc3F)CC2)c1C` it was inactive: 83%. In the case of `CCc1ccccc1NC(=O)CSc1nnc2ccc3ccccc3n12`, the survival was inactive: 86%. In the case of `CC(C)(C)OC(=O)N1CCC(c2c(C(=O)NCCN3CCC(Cc4ccccc4)CC3)cnn2-c2ccc(F)cc2)CC1` it was active: 47%. In the case of `CCC(C)NC(=O)CCc1c(C)nc2nc(-c3cc(OC)cc(OC)c3)nn2c1C` (stereo not given) it was inactive: 82%; in that of `Cc1ccc(NC(=O)[C@@H](c2ccccc2)N2Cc3ccccc3C2=O)cc1`, inactive: 71%. For `Cc1ccc(N2C(=O)CSC23C(=O)N(CC(=O)Nc2ccc(C(C)C)cc2)c2ccccc23)cc1C` (stereo not given), the survival is inactive: 85%.

Take `Cc1coc2cc3oc(=O)c(CC(=O)NCCc4ccccc4)c(C)c3cc12`: the survival is inactive: 84%. For `COc1cccc(NC(=O)C(Cc2ccccc2)NS(=O)(=O)c2ccc3c(c2)oc(=O)n3C)c1` (stereo not given), the survival is inactive: 129%.

Regarding `COc1ccc(-n2nc(C(=O)Nc3cccc(C)n3)c3c4ccccc4n(C)c3c2=O)cc1Cl`, the survival is inactive: 66%. Regarding `CCOc1ccc(CCNC(=O)CCc2cn(Cc3ccc(F)cc3)c3ccccc23)cc1`, the survival was inactive: 67%. For the compound `O=C(Nc1cccnc1Cl)c1cc(-c2cccc(Cl)c2)on1`, the survival is inactive: 72%. In the case of `COc1ccc(NC(=O)CSc2nc(NS(=O)(=O)c3ccccc3)cc(=O)[nH]2)cc1` it was inactive: 72%; in that of `CCOc1ccc(CCNC(=O)c2cc3c(-c4ccc(OC)c(OC)c4)nn(C)c3s2)cc1OCC`, inactive: 77%; in that of `CCOc1ccc(NC(=O)Cn2cc(C(=O)c3ccco3)c3ccccc32)cc1`, inactive: 63%. The same measure for `Cc1cc(S(=O)(=O)C(CNC(=O)COc2ccc(Cl)cc2)c2cccs2)ccc1F` (stereo not given): inactive: 98%; for `CCCN(CCC)C(=O)c1c2c(nc3ccccc13)C(=O)N(C1CCCCC1)C2`: inactive: 64%; for `Cc1ccc(CCNC(=O)C2CCN(Cc3nc(-c4ccccc4C)oc3C)CC2)cc1`: inactive: 118%. In the case of `CCCN(C(=O)c1coc(=O)c2ccccc12)c1ccccc1C` it was active: 56%.

In the case of `CC(C)CC(=O)Nc1c(C(=O)N2CCN(c3ccccc3)CC2)oc2ccccc12`, the survival is inactive: 92%. In the case of `O=C(COc1ccccc1[N+](=O)[O-])N(Cc1ccco1)c1ccccn1` it was inactive: 63%; in that of `COc1cc2c(=O)n(CCc3ccccc3)c(=O)n(CC(=O)Nc3ccccc3)c2cc1OC`, inactive: 98%; in that of `O=C(C1CCC1)N1CCc2cc(S(=O)(=O)NCc3ccc(F)cc3)ccc21`, inactive: 93%. `COc1ccc(C)cc1NC(=O)N1CCCn2nc(C)cc21`: the survival was inactive: 73%. Consider `COc1cc(NC(=O)c2cc(S(=O)(=O)N3CCc4ccccc43)cn2C)cc(OC)c1OC`, for which the survival was inactive: 63%.

With `CC(C)n1c(=N)c(C(=O)NCc2ccccc2)cc2c(=O)n3ccccc3nc21`, the survival is inactive: 87%. As for `Cc1ccc(C)c(CN2C(=O)c3ccccc3S(=O)(=O)c3ccc(C(=O)N4CCCCC4)cc32)c1`, the survival was inactive: 61%. The same measure for `CCc1ccccc1N(C)C(=O)c1cc2c(=O)oc3ccccc3c2s1`: inactive: 42%. In the case of `CC(=O)c1cccc(NC(=O)c2noc3c2CCCC3)c1`, the survival was inactive: 131%. In the case of `Cc1ccccc1Cn1c(CN2CCCC(C)C2)nc2c1c(=O)n(C)c(=O)n2C` (stereo not given) it was inactive: 97%; in that of `Cc1ccc(C)c(N2CCN(C(=O)c3noc4c3CCCCC4)CC2)c1`, inactive: 106%; in that of `O=C(Nc1ccc(S(=O)(=O)Nc2cccc(C(F)(F)F)c2)cc1)c1ccco1`, inactive: 81%.

`CCOc1ccc(C(=O)c2cn(CC(=O)Nc3ccc(Cl)cc3)c3cc4c(cc3c2=O)OCCO4)cc1`: the survival was inactive: 115%.

For `CCc1cccc(C)c1NC(=O)c1cccc(C(=O)Nc2c(C)cccc2CC)c1`, the survival is inactive: 76%. The same measure for `COc1ccc(OC)c(NC(=O)/C=C/c2ccc(C)o2)c1`: active: 40%. `CCOc1ccccc1NC(=O)Cn1c(=O)n(-c2cccc(C)c2)c(=O)c2c1c1cc(OC)ccc1n2C`: the survival was inactive: 67%. In the case of `Cc1ccc(-c2c(C#N)c(SCC(=O)c3ccc(F)cc3)nc3c2CCCC3)o1` it was inactive: 119%; in that of `COc1ccc(C(=O)Cn2c(=O)c(-c3cc(C)ccc3NC(C)=O)nc3ccccc32)cc1`, inactive: 74%. The same measure for `CC(=O)c1cc2c(cc1N/C(=N/S(=O)(=O)c1ccc(Br)cc1)c1ccccc1)OCO2`: inactive: 69%. In the case of `O=C(Cn1c(=O)n(CC2CCC(C(=O)NCCc3ccccc3)CC2)c(=O)c2ccccc21)Nc1cccc(F)c1` (stereo not given) it was inactive: 85%.

As for `COc1ccc(C2C=C(c3ccccc3)Nc3nc(NS(=O)(=O)c4ccc(Cl)cc4)nn32)cc1` (stereo not given), the survival is active: 3%.

Turning to `COC(=O)c1ccccc1NC(=O)N1CCc2c(sc3c2CCCC3)C1c1ccc(F)cc1` (stereo not given), the survival was inactive: 118%. The same measure for `O=C(COc1ccccc1)NC1CC(=O)N(c2ccc3c(c2)OCCO3)C1` (stereo not given): inactive: 80%; for `O=C(CC1COc2ccccc2O1)NCc1ccccc1` (stereo not given): inactive: 85%. In the case of `COc1cc(CN2CCN(S(=O)(=O)c3ccccc3)CC2)cc(OC)c1O` it was inactive: 57%; in that of `CCc1ccccc1NC(=O)C1=C(C)C(=O)OC12CCCCCC2`, inactive: 58%; in that of `O=C(CNS(=O)(=O)c1cccs1)N1CCN(c2cccc(C(F)(F)F)c2)CC1`, inactive: 83%.

On to `COc1ccc(CNC(=O)c2ccc(CS(=O)(=O)c3ccccc3OC)o2)cc1`, for which the survival is inactive: 95%.

Consider `O=C(NCCc1nc2ccccc2n1Cc1ccc(F)cc1)c1ccco1`, for which the survival is inactive: 47%.

Take `Cc1ccc(C)c(-c2[nH]c3c(c2-c2c(-n4cccc4)n(C)c(=O)[nH]c2=O)c(=O)[nH]c(=O)n3C)c1`: the survival is active: 59%.

As to `CCN(CC)S(=O)(=O)c1ccc2c(c1)N(CC(=O)N1CCN(c3ccc(F)cc3)CC1)C(=O)CO2`, the survival is inactive: 94%. On to `CCOc1ccc(CCNC(=O)Cn2nc(-c3ccc(C)cc3)ccc2=O)cc1OCC`, for which the survival is inactive: 72%. In the case of `CCN(CC)S(=O)(=O)c1ccc2oc(C(=O)N(C)Cc3ccccc3)c(C)c2c1` it was active: 40%; in that of `COc1ccc(Cn2c(=O)c3oc4ccccc4c3n(Cc3ccc(F)cc3)c2=O)cc1`, inactive: 81%.

The values are drawn from PubChem BioAssay AID463173 (ICCB-Longwood Screening Facility, Harvard Medical School, 2010).
